Results published in the supplement of paper PMC12217912.
The list shows a part of the results. Sequences were assembled here from the parent chain. Inactive controls read about 0.05.

B1: TEV protease; numbered along this chain (parent)
chain: MGESLFKGPRDYNPISSSICHLTNESDGHTTSLYGIGFGPFIITNKHLFRRNNGTLVVQSLHGVFKVKDTTTLQQHLVDGRDMIIIRMPKDFPPFPQKLKFREPQREERICLVTTNFQTKSMSSMVSDTSCTFPSGDGIFWKHWIQTKDGQCGSPLVSTRDGFIVGIHSASNFTNTNNYFTSVPKNFMELLTNQEAQQWVSGWRLNADSVLWGGHKVFMVKPEEPFQPVKEATQL

Variants of: B1
Assay: raw area under fraction-flipped curve 0-4 h after induction (AUC4h, not background-subtracted), DNA-recorder readout of cleavage of the substrate (dimensionless); higher = more cleavage of the substrate by the protease variant
Details: temperature: 34 °C; time window: 0-4 h after rhamnose induction
Protocol: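 In vivo DNA recorder in E. coli TOP10(DE3) ΔrhaA at 34 °C. Each TEVp single-site mutant (parent TEVp 0) is paired with a single-site variant of the 7-mer TEVs (canonical ENLYFQ|S). The substrate sits between flexible linkers in a Bxb1-sfGFP-TEVs-SsrA fusion, so cleavage stabilises Bxb1 and speeds flipping of a recombination array, read by NGS. The value is the raw area under the fraction-flipped curve over 0-4 h after rhamnose induction (AUC4h), with ≥20 reads per time point. It is not background-subtracted; inactive controls average about 0.047.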
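Also: Bxb1 expression induced with 0.2% (w/v) L-rhamnose at OD600 near 0.5, cultures sampled hourly, flipped fraction per protease–substrate barcode pair counted by paired-end Illumina sequencing.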

G202D
area with substrate ENLYFAS: 0.0588 | area with substrate ENLYFFS: 0.07 | area with substrate ENLYFGS: 0.065 | area with substrate ENLYFHS: 0.0675 | area with substrate ENLYFIS: 0.0554 | area with substrate ENLYFLS: 0.0575 | area with substrate ENLYFMS: 0.0565 | area with substrate ENLYFNS: 0.0572 | area with substrate ENLYFRS: 0.0656 | area with substrate ENLYFTS: 0.0504 | area with substrate ENLYFWS: 0.058 | area with substrate ENLYFYS: 0.0501

K68W
area with substrate ENLYFAS: 0.0637 | area with substrate ENLYFES: 0.068 | area with substrate ENLYFFS: 0.0609 | area with substrate ENLYFGS: 0.0375 | area with substrate ENLYFIS: 0.0615 | area with substrate ENLYFKS: 0.0597 | area with substrate ENLYFLS: 0.0575 | area with substrate ENLYFMS: 0.0718 | area with substrate ENLYFNS: 0.0668 | area with substrate ENLYFPS: 0.0541 | area with substrate ENLYFRS: 0.0576 | area with substrate ENLYFSS: 0.0584 | area with substrate ENLYFTS: 0.0539 | area with substrate ENLYFVS: 0.0606 | area with substrate ENLYFWS: 0.0394 | area with substrate ENLYFYS: 0.0477

F140Q
area with substrate ENLYFAS: 0.051 | area with substrate ENLYFCS: 0.0447 | area with substrate ENLYFES: 0.0654 | area with substrate ENLYFHS: 0.0637

L5K
area with substrate ENLYFAS: 0.0568 | area with substrate ENLYFCS: 0.0538 | area with substrate ENLYFES: 0.0708 | area with substrate ENLYFFS: 0.0628 | area with substrate ENLYFHS: 0.0482 | area with substrate ENLYFIS: 0.0567 | area with substrate ENLYFMS: 0.0673 | area with substrate ENLYFPS: 0.0434 | area with substrate ENLYFWS: 0.0258

Q75I
area with substrate ENLYFAS: 0.0653 | area with substrate ENLYFDS: 0.0676 | area with substrate ENLYFES: 0.0748 | area with substrate ENLYFFS: 0.0707 | area with substrate ENLYFIS: 0.0669 | area with substrate ENLYFKS: 0.0786 | area with substrate ENLYFLS: 0.0666 | area with substrate ENLYFMS: 0.0463 | area with substrate ENLYFPS: 0.0568 | area with substrate ENLYFRS: 0.065 | area with substrate ENLYFSS: 0.0541 | area with substrate ENLYFYS: 0.0594

T119D
area with substrate ENLYFAS: 0.0606 | area with substrate ENLYFES: 0.0503 | area with substrate ENLYFHS: 0.0747 | area with substrate ENLYFKS: 0.0664 | area with substrate ENLYFMS: 0.0632 | area with substrate ENLYFPS: 0.0651 | area with substrate ENLYFTS: 0.0519 | area with substrate ENLYFVS: 0.0637 | area with substrate ENLYFWS: 0.0663

T159D
area with substrate ENLYFAS: 0.0654 | area with substrate ENLYFCS: 0.052 | area with substrate ENLYFES: 0.0677 | area with substrate ENLYFGS: 0.0675 | area with substrate ENLYFPS: 0.0544 | area with substrate ENLYFSS: 0.0501 | area with substrate ENLYFVS: 0.0353 | area with substrate ENLYFYS: 0.0685

G63S
area with substrate ENLYFAS: 0.0567 | area with substrate ENLYFES: 0.062 | area with substrate ENLYFGS: 0.055 | area with substrate ENLYFHS: 0.0611 | area with substrate ENLYFIS: 0.056 | area with substrate ENLYFKS: 0.055 | area with substrate ENLYFMS: 0.0725 | area with substrate ENLYFNS: 0.0403 | area with substrate ENLYFPS: 0.0611 | area with substrate ENLYFSS: 0.047 | area with substrate ENLYFTS: 0.0692 | area with substrate ENLYFVS: 0.0543 | area with substrate ENLYFWS: 0.0446

K68D
area with substrate ENLYFAS: 0.0648 | area with substrate ENLYFCS: 0.0588 | area with substrate ENLYFDS: 0.0696 | area with substrate ENLYFFS: 0.0682 | area with substrate ENLYFIS: 0.0695 | area with substrate ENLYFMS: 0.0641 | area with substrate ENLYFNS: 0.0604 | area with substrate ENLYFPS: 0.0813 | area with substrate ENLYFSS: 0.0692 | area with substrate ENLYFTS: 0.0516 | area with substrate ENLYFWS: 0.0402 | area with substrate ENLYFYS: 0.0831

Y34R
area with substrate ENLYFAS: 0.0688 | area with substrate ENLYFES: 0.062 | area with substrate ENLYFKS: 0.0345 | area with substrate ENLYFLS: 0.0616 | area with substrate ENLYFMS: 0.0521 | area with substrate ENLYFPS: 0.0541 | area with substrate ENLYFRS: 0.0458 | area with substrate ENLYFSS: 0.0344 | area with substrate ENLYFTS: 0.0878 | area with substrate ENLYFWS: 0.0351

P134V
area with substrate ENLYFAS: 0.0557 | area with substrate ENLYFES: 0.0597 | area with substrate ENLYFFS: 0.0548 | area with substrate ENLYFGS: 0.0667 | area with substrate ENLYFIS: 0.0526 | area with substrate ENLYFLS: 0.0565 | area with substrate ENLYFNS: 0.0621 | area with substrate ENLYFPS: 0.0703 | area with substrate ENLYFRS: 0.0565 | area with substrate ENLYFTS: 0.0472 | area with substrate ENLYFVS: 0.0578 | area with substrate ENLYFWS: 0.0588

L77C
area with substrate ENLYFAS: 0.0877 | area with substrate ENLYFCS: 0.055 | area with substrate ENLYFDS: 0.0415 | area with substrate ENLYFFS: 0.0625 | area with substrate ENLYFHS: 0.0584 | area with substrate ENLYFIS: 0.0575 | area with substrate ENLYFKS: 0.0583 | area with substrate ENLYFMS: 0.0646 | area with substrate ENLYFNS: 0.0654 | area with substrate ENLYFPS: 0.0635 | area with substrate ENLYFTS: 0.0754 | area with substrate ENLYFVS: 0.051 | area with substrate ENLYFWS: 0.0633

P89Q
area with substrate ENLYFAS: 0.0481 | area with substrate ENLYFCS: 0.0501 | area with substrate ENLYFDS: 0.0454 | area with substrate ENLYFES: 0.0541 | area with substrate ENLYFFS: 0.0598 | area with substrate ENLYFHS: 0.0657 | area with substrate ENLYFIS: 0.0465 | area with substrate ENLYFKS: 0.0553 | area with substrate ENLYFLS: 0.0579 | area with substrate ENLYFMS: 0.0557 | area with substrate ENLYFNS: 0.0584 | area with substrate ENLYFPS: 0.0258 | area with substrate ENLYFRS: 0.0583 | area with substrate ENLYFSS: 0.0684 | area with substrate ENLYFTS: 0.056 | area with substrate ENLYFVS: 0.0559 | area with substrate ENLYFWS: 0.0738 | area with substrate ENLYFYS: 0.0542

M125P
area with substrate ENLYFAS: 0.0619 | area with substrate ENLYFDS: 0.0523 | area with substrate ENLYFES: 0.0714 | area with substrate ENLYFFS: 0.017 | area with substrate ENLYFIS: 0.0551 | area with substrate ENLYFKS: 0.0524 | area with substrate ENLYFMS: 0.0324 | area with substrate ENLYFNS: 0.0602 | area with substrate ENLYFPS: 0.063 | area with substrate ENLYFSS: 0.0788

F6W
area with substrate ENLYFAS: 0.0566 | area with substrate ENLYFFS: 0.0675 | area with substrate ENLYFGS: 0.0686 | area with substrate ENLYFHS: 0.0426 | area with substrate ENLYFIS: 0.0592 | area with substrate ENLYFKS: 0.0581 | area with substrate ENLYFMS: 0.0603 | area with substrate ENLYFNS: 0.0701 | area with substrate ENLYFPS: 0.0627 | area with substrate ENLYFRS: 0.0893 | area with substrate ENLYFSS: 0.0364 | area with substrate ENLYFVS: 0.0438 | area with substrate ENLYFWS: 0.0564 | area with substrate ENLYFYS: 0.0588
